B1: TPR 5TU (parent)
chain: GGAUCUUCUCGAUCUAACAAAAAAGACAAAUCUGCCACAAAGCUUGAGAGCAUCUUCGGAUGCAGAGGCGGCAGCCUUCGGUGGCGCGAUAGCGCCAACGUUCUCAACUAUGACACGCAAAACGCGUGCUCCGUUGAAUGGAGUUUAUCAUG

Variants at the background level are over-represented here.

The series covers variants of B1. The experiment in a line: polymerase ribozyme fitness, log enrichment relative to wild type (log ratio); higher = more active; in vitro selection for triplet polymerase activity. A digest of the protocol:
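Fitness is a logarithmic measure of how a genotype enriched relative to the wild type, with replicate averages weighted by inverse variance. The logarithm uses base 2, and enrichment came from Illumina sequencing of input and output libraries. Those libraries were PCR-built, transcribed mutants of each subunit of a heterodimeric triplet polymerase ribozyme, passed through one triplicate in vitro selection round that included frozen incubation at −7 °C, gel excision of extended constructs and streptavidin-bead capture. Genotypes were kept only if they had ≥10 input reads and ≥1 read per output.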
Take U33A A66U A73U A115C: the “polymerase ribozyme fitness (log ratio)” value is not above -4.2.

With U33C C87G G152U, the “polymerase ribozyme fitness (log ratio)” value was not above -4.2.

Regarding C32U U55A U77A G141C G152U, the “polymerase ribozyme fitness (log ratio)” value was not above -4.2.

Take C32U: the “polymerase ribozyme fitness (log ratio)” value is -1.22.

With U33G A40G A52C C57A G86A U104A C114A, the “polymerase ribozyme fitness (log ratio)” value is not above -4.2.

Regarding G34C A39G A49C A97U, the “polymerase ribozyme fitness (log ratio)” value is not above -4.2.

U33G G80C C85G: the “polymerase ribozyme fitness (log ratio)” value was not above -4.2.

With U33A C35U U55G C57U C85U C87U A142C, the “polymerase ribozyme fitness (log ratio)” value was not above -4.2.

With U33G C87A C96U C99A A138U, the “polymerase ribozyme fitness (log ratio)” value is not above -4.2.

Consider U33G G68A C87G C108U A120C G136U, for which the “polymerase ribozyme fitness (log ratio)” value was not above -4.2.

In the case of G34A A41G A120U, the “polymerase ribozyme fitness (log ratio)” value was -1.2.

As to G34U A39C A60C U61A G70U C87A U101G C132U, the “polymerase ribozyme fitness (log ratio)” value was not above -4.2.

With C32U A40G C51A U56A U101A, the “polymerase ribozyme fitness (log ratio)” value is not above -4.2.

Turning to G34U C35U C54U G67C C85A U134A A150C, the “polymerase ribozyme fitness (log ratio)” value was not above -4.2.

With G34U U45G C95U, the “polymerase ribozyme fitness (log ratio)” value was not above -4.2.

Regarding U33A A41G C75G C79A A91G A115U, the “polymerase ribozyme fitness (log ratio)” value was not above -4.2.

On to G34C G42C A47G A64C C95G U130G U146C, for which the “polymerase ribozyme fitness (log ratio)” value was not above -4.2.

On to G34U G50C G70C U148C, for which the “polymerase ribozyme fitness (log ratio)” value is not above -4.2.

With C32U G50A A110G A115G C131G G133U, the “polymerase ribozyme fitness (log ratio)” value is not above -4.2.

Turning to U33G G58C A120G G133C, the “polymerase ribozyme fitness (log ratio)” value was -3.81.

As for U33C C35A G84U, the “polymerase ribozyme fitness (log ratio)” value was not above -4.2.

Consider U33A C69U C93A A98C A122G U127A, for which the “polymerase ribozyme fitness (log ratio)” value is not above -4.2.

Take U33A C43G G50U G84A A89U: the “polymerase ribozyme fitness (log ratio)” value was not above -4.2.

Turning to G34A G67C U82A A115G C118G, the “polymerase ribozyme fitness (log ratio)” value was not above -4.2.

For U33G U55A G70A G80C, the “polymerase ribozyme fitness (log ratio)” value is not above -4.2.

On to G34C C76A C85U C118U G140A, for which the “polymerase ribozyme fitness (log ratio)” value is not above -4.2.

Take U33G A47C U56A A73G G83U C99A: the “polymerase ribozyme fitness (log ratio)” value was -4.05.

As to G34U G71C G84A G94C C96A U102C, the “polymerase ribozyme fitness (log ratio)” value is not above -4.2.

On to U33G C99U C116A G143C U145C, for which the “polymerase ribozyme fitness (log ratio)” value was not above -4.2.

For the variant G34A G84A U134G, the “polymerase ribozyme fitness (log ratio)” value was -2.82.

On to G34A G46U U55A C57U U102G U135A, for which the “polymerase ribozyme fitness (log ratio)” value was not above -4.2.

As to U33A G50A A64C G83C, the “polymerase ribozyme fitness (log ratio)” value was not above -4.2.

With C32U A39U C72A C93U C114G G141A U144C A147G, the “polymerase ribozyme fitness (log ratio)” value is not above -4.2.

Turning to G34A C72U C96A C103U A150C, the “polymerase ribozyme fitness (log ratio)” value is not above -4.2.

Turning to C32U G46A C51G U53C G67C G86U U101G A138U, the “polymerase ribozyme fitness (log ratio)” value is not above -4.2.

Consider G34A C57G G117A U144A, for which the “polymerase ribozyme fitness (log ratio)” value is -3.39.

For the variant C32G U101G C125U A150G, the “polymerase ribozyme fitness (log ratio)” value was not above -4.2.

Consider C32U U56A A91U A113U C118A G143C C149U, for which the “polymerase ribozyme fitness (log ratio)” value is not above -4.2.

As to U33G U77C A107U, the “polymerase ribozyme fitness (log ratio)” value was not above -4.2.

Turning to C32U C43G C87A C93G C114U, the “polymerase ribozyme fitness (log ratio)” value is not above -4.2.

Consider G34U G58C C69U A91G, for which the “polymerase ribozyme fitness (log ratio)” value was not above -4.2.

G34C G58C C114A: the “polymerase ribozyme fitness (log ratio)” value was not above -4.2.

Consider U33A G92C G94A A147G U151G, for which the “polymerase ribozyme fitness (log ratio)” value was not above -4.2.

Turning to G34C U45A G50C A52C U53A C76A G81A G92A C105G, the “polymerase ribozyme fitness (log ratio)” value is not above -4.2.

Turning to C35A A37G C38G A60G A89U U134G U139G G152C, the “polymerase ribozyme fitness (log ratio)” value was not above -4.2.

Regarding U33G A39U C116A U130G, the “polymerase ribozyme fitness (log ratio)” value is -3.98.

As to U33C A73G C85A U111C A119G, the “polymerase ribozyme fitness (log ratio)” value was not above -4.2.

As for U33C U56G C93U, the “polymerase ribozyme fitness (log ratio)” value is not above -4.2.

In the case of U33G C38G U82C G84A A98G, the “polymerase ribozyme fitness (log ratio)” value is not above -4.2.

For the variant U33A G42C C51A G59C A73G A120C A121U U130A G141A U146G, the “polymerase ribozyme fitness (log ratio)” value was not above -4.2.

Regarding G34A U102G, the “polymerase ribozyme fitness (log ratio)” value is not above -4.2.

As for G34A A52G G59C G126A, the “polymerase ribozyme fitness (log ratio)” value was not above -4.2.

Take G34A G65C U82G G83A A89G C105U A107U: the “polymerase ribozyme fitness (log ratio)” value is not above -4.2.

In the case of U33A C75A A110U, the “polymerase ribozyme fitness (log ratio)” value was not above -4.2.

With G34U U82G C96G A106G U145C, the “polymerase ribozyme fitness (log ratio)” value is -3.75.

With U33G A39C C54U, the “polymerase ribozyme fitness (log ratio)” value was -3.84.

As for G34A C36A A137G, the “polymerase ribozyme fitness (log ratio)” value was not above -4.2.

Consider U33G C95A, for which the “polymerase ribozyme fitness (log ratio)” value was -3.

Turning to C32U G42A A60C A66G A73G C79A G84A C93U C96G A97U C103G, the “polymerase ribozyme fitness (log ratio)” value is not above -4.2.

On to C32U A37G G46U U77C G86C A115G A119U, for which the “polymerase ribozyme fitness (log ratio)” value was not above -4.2.

With U33C A41C, the “polymerase ribozyme fitness (log ratio)” value is -3.48.

As to U33C U90C G117U G141U, the “polymerase ribozyme fitness (log ratio)” value was not above -4.2.

On to U33C A37C C51G U53A G100C A115U C116A, for which the “polymerase ribozyme fitness (log ratio)” value was not above -4.2.

For U33C A52G G70A G92A A150G, the “polymerase ribozyme fitness (log ratio)” value was -3.87.

As to U33G U44A G46C A73G C76A C95U G133U, the “polymerase ribozyme fitness (log ratio)” value was not above -4.2.

As to G34U U56G G58A C69G G94C A97G U134C, the “polymerase ribozyme fitness (log ratio)” value is not above -4.2.

C32G U102G: the “polymerase ribozyme fitness (log ratio)” value was not above -4.2.

As for U33G A60U G81C G83A G92A U127A U148A, the “polymerase ribozyme fitness (log ratio)” value is not above -4.2.

For C32U C51G A60U C79U G86A U144C, the “polymerase ribozyme fitness (log ratio)” value was not above -4.2.

As for U33C A37G C63A C87G U111G U151A, the “polymerase ribozyme fitness (log ratio)” value is not above -4.2.

For the variant C32U U77C C85A C96U U130C G133U, the “polymerase ribozyme fitness (log ratio)” value is not above -4.2.

As to G34A C36G C69G C76A C95G G112A, the “polymerase ribozyme fitness (log ratio)” value was not above -4.2.

U33A G46A C93G: the “polymerase ribozyme fitness (log ratio)” value is not above -4.2.

With C32U A40C C85A C114U U139C, the “polymerase ribozyme fitness (log ratio)” value was not above -4.2.

Turning to C32U G48A U78A A91G C118A, the “polymerase ribozyme fitness (log ratio)” value is not above -4.2.

Consider U33C U53A C116A C125A, for which the “polymerase ribozyme fitness (log ratio)” value is not above -4.2.

As for U33A A37C C51U G92C U111G, the “polymerase ribozyme fitness (log ratio)” value is not above -4.2.

Turning to U33G G50U U90G C96G, the “polymerase ribozyme fitness (log ratio)” value is -3.98.

In the case of U33A G50A U53A C85G C96G A97U C114G U139A, the “polymerase ribozyme fitness (log ratio)” value was not above -4.2.

On to U33G U45G A60C G133C, for which the “polymerase ribozyme fitness (log ratio)” value was not above -4.2.

G34C G58A G68C G84A U90G A120G C125G: the “polymerase ribozyme fitness (log ratio)” value was not above -4.2.

In the case of U33G C54A A91U C95U A98C U144A, the “polymerase ribozyme fitness (log ratio)” value was not above -4.2.

As for C32U U33G C38U C54U U77A A107U, the “polymerase ribozyme fitness (log ratio)” value was -3.74.

On to G34A U145A, for which the “polymerase ribozyme fitness (log ratio)” value was -0.571.

These data come from the RNAGym collection of RNA variant scans (doi:10.1073/pnas.2313332121).
